Assay results taken from PubChem BioAssay AID1460 (National Center for Advancing Translational Sciences (NCATS), 2008).
The campaign covered roughly 270,000 compounds. About 5,800 (2.1%) were called active. Inconclusive means that the source gave no clear call. Such entries were picked first, then a sample of the others. Calls come from the whole dose curve; as a rule, active = well fitted inhibition curve with a large enough effect; inconclusive = small, poorly fitted or top-dose-only effect; inactive = flat fitted curve, though single readings scatter. Potencies beside an inconclusive call are fits to weak or partial responses and may not hold up.

target: Microtubule-associated protein tau (Homo sapiens) (UniProt P10636); test: qHTS for Inhibitors of Tau Fibril Formation, Thioflavin T Binding; details: recombinant tau K18 P301L (four-repeat tau fragment), heparin-induced fibrillization, ThT fluorescence; series mostly up to 57.4 µM; note: nearly all actives have a fitted effect of over 55% in size
Outline: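 K18 P301L tau (15 uM + 0.24 uM Alexa 594-tagged), heparin 20 uM, NaOAc pH 7, 6 h 37 C; ThT 30 uM, 1 h RT, ex 450/em 510 nm.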
Potency is the fitted concentration of half-maximal effect; tags give direction and shape of the fitted curve.

Sequence of UniProt P10636 (P10636 whole entry, looked up, the tested form may be a part): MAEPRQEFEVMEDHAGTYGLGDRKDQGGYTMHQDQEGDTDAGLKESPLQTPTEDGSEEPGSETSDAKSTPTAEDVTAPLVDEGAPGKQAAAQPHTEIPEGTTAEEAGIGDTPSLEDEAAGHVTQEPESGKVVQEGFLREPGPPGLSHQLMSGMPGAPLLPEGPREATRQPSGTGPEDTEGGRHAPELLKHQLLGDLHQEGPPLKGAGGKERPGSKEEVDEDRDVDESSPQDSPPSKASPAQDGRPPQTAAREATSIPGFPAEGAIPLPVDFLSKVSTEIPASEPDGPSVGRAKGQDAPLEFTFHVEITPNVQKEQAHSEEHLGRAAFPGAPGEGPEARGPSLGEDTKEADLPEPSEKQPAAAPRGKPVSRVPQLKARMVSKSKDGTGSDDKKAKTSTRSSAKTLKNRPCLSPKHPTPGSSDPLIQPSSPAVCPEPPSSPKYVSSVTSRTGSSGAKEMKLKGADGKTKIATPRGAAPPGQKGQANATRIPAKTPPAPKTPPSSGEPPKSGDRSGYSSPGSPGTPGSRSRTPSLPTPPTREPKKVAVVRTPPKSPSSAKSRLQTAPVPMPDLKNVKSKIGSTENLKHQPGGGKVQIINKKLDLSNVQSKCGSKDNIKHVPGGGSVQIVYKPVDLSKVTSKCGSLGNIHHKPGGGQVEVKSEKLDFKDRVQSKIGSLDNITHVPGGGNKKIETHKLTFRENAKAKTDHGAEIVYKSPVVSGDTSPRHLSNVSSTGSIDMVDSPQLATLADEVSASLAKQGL

Row | SMILES | Potency
1 | COc1ccc(C)cc1NC(=O)Nc1cccc(C)c1 | inconclusive: 7.08 µM [inhibitor, partial curve]
2 | COc1cccc(CN(CC2CCCO2)S(=O)(=O)c2ccc(S(=O)(=O)N(C)C)cc2)c1 (centres undefined) | inactive
3 | CCOc1ccc(NC(=O)N2CCC(n3nnc4ccccc43)CC2)cc1 | inconclusive: 7.94 µM [inhibitor, partial curve]
4 | CCOc1ccc(NC(=S)NCc2ccc3c(c2)OCO3)cc1 | inconclusive: 31.6 µM [inhibitor, partial curve, poor fit]
5 | Cc1ccc(-n2cc3c(c2-c2ccccc2Br)c(=O)n(C)c(=O)n3C)cc1N | inconclusive: 17.8 µM [inhibitor, single point]
6 | Clc1ccc(-c2nc(NCCN3CCOCC3)c3ccccc3n2)cc1 | inconclusive: 17.8 µM [activator, single point]
7 | CCCn1c(=O)c2ccccc2n2c(SCC(=O)c3ccccc3)nnc12 | inactive
8 | Cc1ccc(C(C)C)c(OCC(=O)NCC2(N3CCOCC3)CCCCC2)c1 | inconclusive: 20 µM [inhibitor, single point]
9 | CC(=O)N1CCc2c(sc3c2c(=O)n(-c2ccccc2C)c(=O)n3CC(=O)c2ccccc2)C1 | inactive
10 | O=C(NCC(c1cccnc1)N1CCc2ccccc21)c1ccc(F)c(F)c1 (centres undefined) | inactive
11 | CCOc1cc(/C=N/Nc2nc(Nc3ccccc3)nc(N3CCCCC3)n2)ccc1OCC(=O)O | inconclusive: 20 µM [inhibitor, single point]
12 | Cc1cn(C)c(CC(=O)N2CCN(c3cccc(C(F)(F)F)c3)CC2)c1C(=O)O | inactive
13 | Brc1ccc(OCc2nnnn2-c2ccccc2)cc1 | inactive
14 | COc1ccc(NC(=O)C2CCCN(C(=O)c3cnn(-c4ccccc4)c3-n3cccc3)C2)cc1 (centres undefined) | inactive
15 | CC(=O)c1ccc(N2CCN(C(=O)COc3ccccc3F)CC2)c(F)c1 | inconclusive: 10 µM [inhibitor, partial curve, poor fit]
16 | Cc1cc(/C=C(\C#N)C(=O)NC2CCCCCC2)c(C)n1C | inconclusive: 1.26 µM [inhibitor, full curve, poor fit]
17 | COc1ccc(N=Cc2cc3c(cc2O)OC(N)=C(C#N)C3c2ccccc2)cc1 (centres undefined) | inconclusive: 22.4 µM [inhibitor, single point]
18 | COc1ccccc1C(=O)Nc1c(C(=O)N2CCN(c3ccc(F)cc3)CC2)oc2ccccc12 | inconclusive: 44.7 µM [inhibitor, single point]
19 | CSc1ccccc1NC(=O)CSCc1ccc(C)cc1 | inactive
20 | COc1ccc(/C=N/O)cc1COc1ccc(NC(C)=O)cc1 | inactive
21 | CN=c1scc(C)n1/N=C/c1ccc(O)c(O)c1O | active: 7.08 µM
22 | COc1cc(/C=N/Nc2nc3ccccc3[nH]2)cc(Br)c1OCC(=O)N(C)C | inconclusive: 5.62 µM [inhibitor, partial curve]
23 | Cc1ccc(C)c(C(=O)COC(=O)c2cc(Cl)nc3ccccc23)c1 | inconclusive: 20 µM [inhibitor, partial curve]

Row | SMILES | Potency
24 | CC1(OC(=O)C2CCCC2)C(=O)C=C2C=C(c3ccc(C#N)cc3)OC=C2C1=O (centres undefined) | inactive
25 | COc1ccccc1-c1nc2c(c(SCC(=O)Nc3ccccc3F)n1)Cc1c(CO)cnc(C)c1O2 | inactive
26 | Nc1ccc2c(c1)COC2=O | inconclusive: 31.6 µM [inhibitor, single point]
27 | O=S(=O)(c1c(F)cccc1F)N1CCN(C(=S)NCc2ccc3c(c2)OCO3)CC1 | inactive
28 | COc1ccc(Cl)cc1NC(=O)Cc1coc2c(C)c(C)ccc12 | inactive
29 | CCc1ccc(NC(=O)c2sc3nc4c(cc3c2N)CN(CC)CC4)cc1 | active: 10 µM
30 | Cc1ccc(/C=N/Nc2nc(N3CCCCC3)nc(N3CCCCC3)n2)o1 | inconclusive: 14.1 µM [inhibitor, partial curve, poor fit]
31 | COc1cccc(-c2cc(C(=O)N3CCN(c4ccccc4OC)CC3)no2)c1 | inconclusive: 15.8 µM [inhibitor, partial curve]
32 | Cc1cc(O)c(/C=N/Nc2ccccc2)c(=O)o1 | inconclusive: 17.8 µM [inhibitor, partial curve]
33 | COC(=O)CC(=O)CSc1nc2c(cc1C#N)CCCCC2 | inconclusive: 20 µM [inhibitor, partial curve]
34 | Cc1ccc(O)c(-c2cc(-c3ccccc3[N+](=O)[O-])[nH]n2)c1 | inconclusive: 11.2 µM [inhibitor, partial curve]
35 | O=C(Nc1ccc(F)cc1)c1ccc(Cn2nc(N3CCN(c4ccccc4)CC3)ccc2=O)o1 | inconclusive: 15.8 µM [inhibitor, partial curve]
36 | COC(=O)c1ccc(NC(=O)CCc2c(C)nn(-c3ccc(N4CCOCC4)nn3)c2C)cc1 | inconclusive: 7.94 µM [inhibitor, full curve]
37 | CCC(C)(C)n1nnnc1C(c1cc2ccc(OC)cc2[nH]c1=O)N1CCc2ccccc2C1 (centres undefined) | inconclusive: 28.2 µM [inhibitor, single point]
38 | Cc1cccc(OCC(=O)O/N=C(\N)Cc2cccs2)c1 | inconclusive: 17.8 µM [inhibitor, partial curve]
39 | COc1ccc(C2C(C(C)=O)=C(C)N=c3s/c(=C\c4cc(C)n(C)c4C)c(=O)n32)c(OC)c1 (centres undefined) | inconclusive: 11.2 µM [inhibitor, partial curve]
40 | O=C(CN1CCN(C(=O)N2CCCCC2)CC1)Nc1ccc(F)cc1 | inactive
41 | CCOc1cc(/C=N/n2cnnc2)ccc1OS(=O)(=O)c1ccccc1 | inactive
42 | COc1ccc(CCNC(=O)CSc2ccc3ccccc3c2)cc1OC | inconclusive: 17.8 µM [inhibitor, partial curve]
43 | Cc1ccc(C)c(NC(=S)NNC(=O)c2csc(C(C)C)c2)c1 | inconclusive: 39.8 µM [inhibitor, single point]
44 | CCCN(CCC)CC(O)Cn1cc(/C=C/C(=O)c2ccc(OC)cc2)c2ccccc21 (centres undefined) | inconclusive: 8.91 µM [inhibitor, partial curve]
45 | Cc1cc(C)c2c(=O)cc(C(=O)Nc3nc4ccc(F)cc4s3)oc2c1 | inactive
46 | CCCCCc1cc(=O)oc2c(C(CCN3CCCC(C)C3)c3cc(OC)c(OC)c(OC)c3)c(OC)cc(OC)c12 (centres undefined) | inconclusive: 39.8 µM [inhibitor, single point]

Row | SMILES | Potency
47 | CC(C)CCn1c(O)c(N=NC(=O)Cn2ccc(C(F)(F)F)n2)c2ccccc21 | inactive
48 | CCC1CCc2c(sc(NC(=O)C3CC=CCC3C(=O)O)c2C#N)C1 (centres undefined) | inconclusive: 22.4 µM [inhibitor, single point]
49 | Cc1nc(Cl)c2c(n1)NC1=C(O2)C(=O)CCC1 | inconclusive: 22.4 µM [activator, partial curve]
50 | CCC(CC)C(=O)Nc1nc(-c2ccc3c(c2)CCN3C(=O)C2CC2)c(C)s1 | inconclusive: 12.6 µM [inhibitor, partial curve]
51 | Cc1cc(C(=O)COC(=O)c2nc3nccc(C)n3n2)c(C)n1CC1CCCO1 (centres undefined) | inactive
52 | c1ccc(COc2ccc(Nc3ncnc4nc[nH]c34)cc2)cc1 | inconclusive: 15.8 µM [inhibitor, partial curve]
53 | COc1cc(/C=C2\C(=O)N(c3ccccc3)N=C2C)ccc1Oc1ccc([N+](=O)[O-])cc1[N+](=O)[O-] | inconclusive: 15.8 µM [inhibitor, partial curve]
54 | Cc1cc2ncn(CCC(=O)NC(C)(C)C)c2cc1C | inconclusive: 3.16 µM [inhibitor, partial curve]
55 | CCC(C)(C)n1nnnc1C(c1ccc(O)c(OC)c1)N1CCN(c2nc3ccccc3s2)CC1 (centres undefined) | inconclusive: 15.8 µM [inhibitor, partial curve]
56 | COc1ccccc1N1CCN(CC(O)COc2ccc3c(c2)CCC3)CC1 (centres undefined) | inconclusive: 25.1 µM [inhibitor, partial curve, poor fit]
57 | CCN(Cc1ccccc1)C(=O)CSc1nncn1C | inactive
58 | CCC(NC(=O)Nc1cc(Cl)ccc1OC)c1c(-n2cccc2)sc2c1CCN(C)C2 (centres undefined) | inconclusive: 39.8 µM [inhibitor, single point]
59 | Cc1cccc(/N=C/C2=C(O)CC(C)(C)CC2=O)n1 | inactive
60 | COc1ccc(N/C=C2\C(=O)CCc3c2oc2cc(Cl)c(O)c(Cl)c32)cc1 | active: 2.51 µM
61 | Cc1ccc(S(=O)(=O)c2c(C)cc(C)nc2Oc2cccc(C)c2C)cc1 | inconclusive: 44.7 µM [inhibitor, single point]
62 | CCNc1nc(OC)nc(Oc2ccc(=O)n(-c3ccccc3)n2)n1 | inactive
63 | O=C1C2CC=CCC2C(=O)N1c1ccc(NCCc2ccccc2)c([N+](=O)[O-])c1 (centres undefined) | inconclusive: 14.1 µM [inhibitor, partial curve]
64 | Cc1ccc(CN(CC(=O)N/N=C/c2ccco2)S(=O)(=O)c2ccc(C)cc2)cc1 | inconclusive: 0.891 µM [inhibitor, single point]
65 | S=c1[nH]nc(-c2ccccn2)n1/N=C/c1cccs1 | inactive
66 | COc1ccc(OCCn2nnc3sc4c(c3c2=O)CCC(C(C)(C)C)C4)cc1 (centres undefined) | inactive
67 | O=C(/C=C/c1ccco1)Oc1ccc(C(=S)N2CCOCC2)cc1 | inconclusive: 20 µM [inhibitor, partial curve, poor fit]
68 | Cc1cc(N(C)Cc2ccccc2)n2nc(-c3ccc(C(C)(C)C)cc3)nc2n1 | inactive
69 | Cc1ccc(S(=O)(=O)N2CCCCC2)cc1NC(=O)COC(=O)Cc1cccc(C(F)(F)F)c1 | inconclusive: 39.8 µM [inhibitor, single point]
